Here are results for 54 molecules from ChEMBL document CHEMBL4888484, “Replenishing the malaria drug discovery pipeline: Screening and hit evaluation of the MMV Hit Generation Library 1 (HGL1) against asexual blood stage Plasmodium falciparum ,using a nano luciferase reporter read-out” (2022).

Out of some 150,000 compounds screened, about 540 (0.36%) showed an effect of 50% or more. This is one part of the list.

In the test the test system is Plasmodium falciparum. Briefly: Primary screen in NF54 nanoGlo assay, in single point, at 2uM, 72h; a lower Z score goes with more inhibition. Type of test: functional, Erythrocyte. The conditions noted are these: timepoint 72 hour.
On to `O=C(CCc1ccccc1F)N1CCC[C@H](S(=O)(=O)c2ccc(F)cc2)C1`, for which the % Inhibition (commonly the drop in the measured response relative to a control, in per cent) is reported as -11% and the Z score is on record as 1.44.

As for `CC(C)CN1C(=O)[C@]2(CC(=O)Nc3c2cnn3-c2ccc(F)cc2)c2ccc(F)cc21`, the “% Inhibition” value is reported as -16% and the Z score amounted to 2.23.

With `O=C(c1ccc2nc(C3CC3)oc2c1)N1CCCC[C@@H]1CCn1ccnc1`, the “% Inhibition” value is listed as -6% and the Z score worked out at 0.71.

Consider `CCCS(=O)(=O)NC(c1ccc(OC)nc1)[C@H]1C[C@@H](O)C1` (stereo partly drawn), for which the “% Inhibition” value is given as 8% and the Z score is -1.09.

Consider `O=C(CC1CC1)N1CC[C@H]2C(=O)N(Cc3ccc(F)cc3)CCN2CC1`, for which the “% Inhibition” value is on record as -11% and the Z score is given as 1.44.

As for `Cc1ccc(CN2CCCN(C(=O)Cn3cc(C#N)cn3)CC2)cc1`, the “% Inhibition” value is reported as -1% and the Z score came out at 0.21.

With `O=C(Nc1cccnc1)NC1CCCC1`, the “% Inhibition” value is -11% and the Z score is recorded as 1.56.

For `CC[C@@H](C(=O)NCc1ccc(F)c(Cl)c1)N(C)CC`, the “% Inhibition” value is reported as 9% and the Z score was -1.41.

With `CC(C)[C@@](C)(O)CNCc1cn(C2CCCC2)nc1-c1ccccn1`, the “% Inhibition” value is reported as -7% and the Z score came to 0.77.

In the case of `NC(=O)OCCNC(=O)C[C@@H]1C=CCC1`, the “% Inhibition” value was -2% and the Z score is reported as 0.32.

As to `COCCn1ccc(-c2cccc(-c3cccnc3)c2)n1`, the “% Inhibition” value is listed as -1% and the Z score was 0.19.

Take `C[C@H]1CCCN(C(=O)C2CCN(Cc3ccncc3)CC2)CC1`: the “% Inhibition” value worked out at 6% and the Z score is listed as -0.75.

For `CCCc1noc(Cn2nc(CC)nc2CC)n1`, the “% Inhibition” value is -8% and the Z score is given as 1.14.

In the case of `O=S(=O)(CCN1CCOC2CCCCC21)c1ccccc1` (stereo not drawn), the “% Inhibition” value is recorded as -5% and the Z score is reported as 0.7.

Turning to `c1ccc(CCN2CCN(CCc3ccccn3)CC2)nc1`, the “% Inhibition” value is given as -10% and the Z score worked out at 1.93.

`CCNC(=O)N1CC[C@H](Oc2ccc3ccccc3n2)C1`: the “% Inhibition” value is on record as 57% and the Z score is -3.

In the case of `CN(Cc1cc2n(n1)CCNC2)C[C@]1(c2ccccc2)CC1(C)C`, the “% Inhibition” value was 1% and the Z score is listed as -0.11.

As for `Cc1ccc(NCc2ccc(C#N)cc2)c2c1CC(C)(C)O2`, the “% Inhibition” value is recorded as -5% and the Z score worked out at 0.65.

Consider `CN(C)S(=O)(=O)[C@@H]1CCN(C(=O)OCc2ccccc2)C1`, for which the “% Inhibition” value is -5% and the Z score turned out to be 0.79.

As to `Cc1nn(CC(N)=O)c(C)c1-c1ccc2c(c1)OCCO2`, the “% Inhibition” value is listed as 6% and the Z score was -1.21.

Regarding `CNC(=O)Cc1nc(CN2C[C@H](C)Oc3ccc(OC)cc32)cs1`, the “% Inhibition” value was -5% and the Z score is given as 0.55.

In the case of `CC[C@H](O)c1ccc(-c2cccc(-c3cc[nH]n3)c2)cc1`, the “% Inhibition” value was -13% and the Z score is given as 1.72.

As for `CCN1CCN(c2nc3ncn(CC(=O)Nc4cc(C)ccc4OC)c(=O)c3s2)CC1`, the “% Inhibition” value is listed as -2% and the Z score is reported as 0.36.

Regarding `COc1ccc2c(c1)N(CCc1ccncc1)CCO2`, the “% Inhibition” value was -16% and the Z score was 2.49.

For `Cc1cc(C)cc(NC(=O)N[C@@H](C)C(C)(C)C)c1`, the “% Inhibition” value is -4% and the Z score is recorded as 0.54.

As for `O=C(c1nn(-c2ccccc2)c(=O)c2ccccc12)N1CCC[C@H]1c1ccc2c(c1)OCCO2`, the “% Inhibition” value stood at 5% and the Z score is reported as -0.57.

Turning to `O=C1[C@H]2CCCCN2C(=O)CN1Cc1ccccc1`, the “% Inhibition” value is given as -20% and the Z score is given as 1.83.

Regarding `CC1(C)O[C@H]2[C@H](O)C[C@](OCc3ccccc3)(C(=O)NCc3ccco3)C[C@H]2O1`, the “% Inhibition” value was -5% and the Z score came out at 0.5.

For the molecule `Cc1cnn(CCC(=O)N2C3CCC2Cn2c(nn(Cc4ccccc4)c2=O)C3)c1` (stereo not drawn), the “% Inhibition” value is reported as -3% and the Z score turned out to be 0.4.

On to `CC(=O)NC1CN(C(=O)N[C@@H](C)Cc2ccccc2C(F)(F)F)C1`, for which the “% Inhibition” value was -10% and the Z score is 1.02.

As to `Cc1cc(S(=O)(=O)Nc2cn(C)c(=O)n(C)c2=O)sc1Cl`, the “% Inhibition” value is given as 24% and the Z score is recorded as -4.75.

Regarding `CN(C)c1nc(N)nc(CN2CCN(CC(F)(F)F)c3ccccc32)n1`, the “% Inhibition” value is listed as 2% and the Z score is -0.24.

Turning to `Cc1nc([C@@H]2CCCCCN2C(=O)c2cc(C(C)C)nn2C)no1`, the “% Inhibition” value is recorded as -21% and the Z score is 2.23.

Consider `CCn1cc(CN2CCc3nocc3C2)cc1C#N`, for which the “% Inhibition” value is 0% and the Z score is -0.03.

`CCN(CC)S(=O)(=O)c1cc(C(=O)N2CCc3sccc3[C@@H]2C)n(C)c1`: the “% Inhibition” value stood at 0% and the Z score is on record as -0.04.

For `O=C([C@H]1CCOc2ccccc2C1)N1CCN(c2ncccn2)CC1`, the “% Inhibition” value is -7% and the Z score was 1.12.

For `Cc1ccc(-c2csc(C3CN4CCCC4CO3)n2)s1` (stereo not drawn), the “% Inhibition” value is listed as -2% and the Z score came out at 0.25.

On to `CCOC(=O)N1CCN(c2nc3cc4c(cc3cc2CNCCc2c[nH]c3ccccc23)CCC4)CC1`, for which the “% Inhibition” value was -5% and the Z score is listed as 0.69.

On to `C[C@H]1CC(=O)Nc2ccccc2N1C(=O)CN1C(=O)c2ccccc2C1=O`, for which the “% Inhibition” value is given as -1% and the Z score came out at 0.16.

`CNc1nc(C(=O)N2CCc3[nH]c(-c4ccc(F)cc4F)nc3C2)cs1`: the “% Inhibition” value was -15% and the Z score came out at 2.2.

For `CC1CCC(C(C)C)c2[nH]nc(-c3ccccc3O)c21` (stereo not drawn), the “% Inhibition” value is on record as 3% and the Z score was -0.32.

For `C[C@@H](Cc1ccc(Cl)cc1Cl)C(=O)N1CCCS1(=O)=O`, the “% Inhibition” value came to 9% and the Z score was -1.77.

Take `CCOC(=O)c1nc2ccccc2nc1N1CCCN(C(=O)COCc2ccccc2)CC1`: the “% Inhibition” value is 1% and the Z score is recorded as -0.15.

With `CC(CC(O)c1ccco1)NC(=O)c1ccc(Br)cn1` (stereo not drawn), the “% Inhibition” value is -9% and the Z score is on record as 0.83.

As for `CCO[C@H]1CN(C(=O)Cc2nc(C)sc2C)C[C@@H]1O`, the “% Inhibition” value came to 0% and the Z score amounted to 0.05.

Regarding `CCOc1cc(C(=O)N2CCC(n3cn[nH]c3=O)CC2)on1`, the “% Inhibition” value was -9% and the Z score was determined as 1.37.

In the case of `O=C(NCC1(O)CCCCC1)c1cc(COc2cccc3cccnc23)on1`, the “% Inhibition” value was -16% and the Z score was 2.38.

With `CCN(CC)C(=O)N(C)CC1(O)CCCC1`, the “% Inhibition” value is recorded as -1% and the Z score is 0.25.

Turning to `COc1ccc(C)cc1S(=O)(=O)N1CCC[C@@]2(CCN(C)C2)C1`, the “% Inhibition” value came to 4% and the Z score is on record as -0.86.

Turning to `CCOC(=O)CNC(=O)N1CCN(Cc2nc3cccnc3n2-c2cc(C)cc(C)c2)CC1`, the “% Inhibition” value was -10% and the Z score stood at 1.32.

With `CCOc1ccc(Cl)cc1CCNC(=O)N1CCC[C@](C)(OC)CC1`, the “% Inhibition” value is given as -3% and the Z score was found to be 0.28.

For the molecule `C[C@@H]1CN(c2ncccc2F)CC[C@@]1(O)C1CCOCC1`, the “% Inhibition” value is recorded as -28% and the Z score is recorded as 2.51.

On to `CC(=O)N1c2c(C)cccc2[C@@H](C)CC1(C)C`, for which the “% Inhibition” value is 34% and the Z score is given as -4.34.

For the molecule `CN1CC[C@]23C(=O)N(Cc4cn(nn4)CCCOc4cccc(c4)[C@@H]12)c1ccccc13`, the “% Inhibition” value is -4% and the Z score is 0.83.
